Measurements as given in PubChem BioAssay AID938 (National Center for Advancing Translational Sciences (NCATS), 2007).
In all, about 73,000 compounds went through this assay and about 1,800 (2.5%) were called active. The shares of active, inactive and inconclusive entries below differ from those in the screen. Calls follow the shape of the dose curve; as a rule, active = well fitted activation curve with a large enough effect; inconclusive = small, poorly fitted or top-dose-only effect; inactive = no such curve, though single readings can be large or run the other way. No potency is given beside an inconclusive call; the fits are too rough.

Assay: qHTS Assay for Agonists of the Thyroid Stimulating Hormone Receptor: Activators of Intracellular cAMP Concentrations in Parental HEK 293; also: nearly all actives have a fitted effect of over 55% in size; as to activation: % of control where 0% means no effect
Details: parental HEK293 CNG cAMP sensor, membrane potential fluorescence; activation: at 57.1 µM (top of the series) unless noted
Outline: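 Parental HEK 293 cells stably expressing a modified CNG channel (no TSHR) report cAMP rise as membrane depolarization. Membrane potential dye with 100 uM RO 20-1724 was loaded for 60 min at room temperature, then compound added for 30 min; fluorescence read at 590 nm.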
Potency is read from the fitted curve at half-maximal effect; tags tell the direction and shape of the fitted curve.

Row | SMILES | Potency | activation
1 | CN(C)C(=O)CCc1nc(-c2ccc(C(C)(C)C)cc2)no1 | inconclusive [activator, partial curve] | –
2 | CCOC(=O)N1CCN(c2cc(=O)n(C3CCCCC3)c(=O)[nH]2)CC1 | inconclusive [activator, single point] | –
3 | COCCNc1nc(-c2ccccc2CN(C)C)nc2ccccc12 | inconclusive [activator, partial curve] | –
4 | COc1cccc(NC(=O)c2ccc(CN3CCN(c4ccccc4)CC3)cc2)c1 | inconclusive [activator, partial curve] | –
5 | O=C1c2ccccc2C(=O)N1Cc1nc2ccccc2c(=O)n1Cc1ccco1 | inconclusive [activator, single point] | –
6 | CCOC(=O)c1c(C)[nH]c(C(C)=O)c1C | inactive | –
7 | CN(Cc1ccco1)c1ncnc2ccc(-c3ccccc3C#N)cc12 | inconclusive [activator, partial curve] | –
8 | O=C(CN1CCC(n2nnc3cc(F)ccc32)CC1)NCCc1nc2ccccc2[nH]1 | inconclusive [activator, single point] | –
9 | CC1=CC2=C(OC1N(C)C)c1cccc3cccc(c13)C2=O (stereo not drawn) | inactive | –
10 | CCOC(=O)c1c(NC(=O)CSc2nnc(CNc3ccc(F)cc3)o2)sc(C(C)=O)c1C | inconclusive [activator, partial curve] | –
11 | COc1cccc(N2CCN(C(=O)C3CCCN(S(=O)(=O)c4cnc[nH]4)C3)CC2)c1 (stereo not drawn) | inconclusive [activator, single point] | –
12 | Oc1ccccc1CNCc1ccccc1O | inconclusive [activator, single point] | –
13 | CCOC(=O)CSc1nnc(-c2ccc(Cl)cc2Cl)o1 | inconclusive [activator, single point] | –
14 | Cc1ccccc1Cn1c(CN2CCN(c3ccc(F)cc3)CC2)nc2c1c(=O)n(C)c(=O)n2C | inconclusive [activator, single point] | –
15 | Cc1ccc(Cl)cc1N(CC(=O)N1CCCCCC1)S(C)(=O)=O | inconclusive [activator, single point] | –
16 | O=NC1=C(c2c(O)[nH]c3ccccc23)CCCC1 | inactive | –
17 | Cc1ccc(-c2nc3cnccn3c2Nc2ccc3c(c2)OCCO3)o1 | inactive | –
18 | O=C(COC(=O)c1ccc2c(c1)OCCO2)NCc1ccccc1 | inconclusive [activator, single point] | –
19 | Nc1nc(=O)c2[nH]cnc2n1O | – | inactive: 1.14% [at 11.4 µM]
20 | Cc1ccc(-c2csc(=S)n2CC(=O)OCC(=O)NCc2ccco2)cc1 | active: 31.6 µM | –
21 | Cc1ccc(NC(=O)COc2ccc3oc4c(c3c2)CCCC4)nc1 | inconclusive [activator, partial curve] | –
22 | C[C@@H]1O[C@H](O[C@@H]2\C=C/C=C\C=C/C=C\C[C@H](C)OC(=O)/C=C\[C@H]3O[C@@H]3C[C@H](O)C[C@]3(O)C[C@@H](O)[C@@H](C(=O)O)[C@H](C2)O3)[C@@H](O)[C@H](N)[C@@H]1O (stereo in doubt) | inactive | –

Row | SMILES | Potency | activation
23 | CCn1c2c(c3cc(C(=O)O)ccc31)CCCC2=O | inconclusive [activator, single point] | –
24 | Nc1nonc1C(=O)NCCNCc1ccccc1OCc1ccccc1F | inconclusive [activator, partial curve, poor fit] | –
25 | Cc1ccc(-n2nc3c(c2NC(=O)c2c(-c4ccccc4Cl)noc2C)CSC3)cc1 | inconclusive [activator, partial curve] | –
26 | CC1CCCN(c2ccc(C(=O)NCc3cccs3)cn2)C1 (stereo not drawn) | inactive | –
27 | CC(C)Cn1c(N2CCN(C(=O)c3cccs3)CC2)nc2ccccc21 | inconclusive [activator, partial curve] | –
28 | COC(=O)[C@@]1(Cc2ccc(OC)cc2)[C@H]2c3cc(C(=O)N(C)C)n(CCO)c3C[C@H]2CN1C(=O)c1ccccc1 | inactive | –
29 | N=C(N)SCCN1CCCCC1 | inconclusive [activator, single point] | –
30 | CCCc1cc(=O)n2[nH]c(C)c(-c3ccccc3)c2n1 | inconclusive [activator, single point] | –
31 | CCOC(=O)c1ccccc1NC(=O)Cn1cnc2c(cnn2-c2ccccc2)c1=O | inconclusive [activator, single point] | –
32 | CN(C)/C=N/c1nc2ccc3c(c2s1)CCCC3 | inactive | –
33 | Cn1c(C(O)c2ccccc2)nc(Cl)c1Cl (stereo not drawn) | inactive | –
34 | C/C(CCC(=O)OC[C@@H]1O[C@H](C#Cc2ccccc2)C=C[C@@H]1Oc1ccc(C)cc1)=N/O[C@@H](C)CN1CCCCc2nc(C)c(C)cc21 | – | inactive: 27.9% [at 11.4 µM]
35 | CC(C)(Oc1ccc(Cl)cc1)C(=O)Nc1ccc2oc(-c3ccncc3)nc2c1 | inconclusive [activator, single point] | –
36 | CCCc1cc(=O)n2[nH]c(-c3ccc(C)cc3)cc2n1 | inconclusive [activator, single point] | –
37 | Cc1ccc(-n2nnnc2SCC(=O)c2cc(C)n(-c3cc(C)on3)c2C)c(C)c1 | inactive | –
38 | Cc1ccc(-c2nc(COC(=O)c3c(C)noc3C)cs2)cc1 | inconclusive [activator, full curve] | –
39 | CC(O)CN(Cc1cccc(Cl)c1)CC(C)O (stereo not drawn) | inconclusive [activator, partial curve] | –
40 | COc1ccccc1CN1CCC2(CC1)CCN(S(=O)(=O)c1ccccc1)CC2 | inactive | –
41 | COc1ccc(-c2ccc(-c3noc(-c4cccc(OC)c4)n3)c(OC)n2)cc1 | inconclusive [activator, single point] | –
42 | CCOc1ccccc1C(=O)NC(C(=O)OCC(=O)Nc1nnc(-c2ccccc2)o1)C(C)C (stereo not drawn) | inconclusive [activator, partial curve] | –
43 | O=C(CCc1nc(-c2ccccc2)no1)Nc1cc(C(F)(F)F)ccc1Cl | inconclusive [activator, single point] | –
